PubChem BioAssay AID360 (National Center for Advancing Translational Sciences (NCATS), 2006)
Among all 48,000 compounds or so, about 550 (1.1%) were called active. Inconclusive results (about 4%) are left out. No stated cut-off is given here; in the data, active means potency below about 15 µM; inconclusive means mostly about 16 µM to 33 µM; inactive means weaker than that. This is one part of the list. Starred links: 1 amine or outer side, 2 acyl side, 3 side chain; linkers in the order of their positions; H or OH if unused. Residues, ends and D or L forms follow the SMILES beside them. *: point of attachment. CO = O=C([*:1])[*:2]; NHPh = c1ccc(N*)cc1

Target: Lysosomal acid glucosylceramidase (Homo sapiens) (UniProt P04062)
UniProt P04062, sequence (P04062 whole entry, looked up): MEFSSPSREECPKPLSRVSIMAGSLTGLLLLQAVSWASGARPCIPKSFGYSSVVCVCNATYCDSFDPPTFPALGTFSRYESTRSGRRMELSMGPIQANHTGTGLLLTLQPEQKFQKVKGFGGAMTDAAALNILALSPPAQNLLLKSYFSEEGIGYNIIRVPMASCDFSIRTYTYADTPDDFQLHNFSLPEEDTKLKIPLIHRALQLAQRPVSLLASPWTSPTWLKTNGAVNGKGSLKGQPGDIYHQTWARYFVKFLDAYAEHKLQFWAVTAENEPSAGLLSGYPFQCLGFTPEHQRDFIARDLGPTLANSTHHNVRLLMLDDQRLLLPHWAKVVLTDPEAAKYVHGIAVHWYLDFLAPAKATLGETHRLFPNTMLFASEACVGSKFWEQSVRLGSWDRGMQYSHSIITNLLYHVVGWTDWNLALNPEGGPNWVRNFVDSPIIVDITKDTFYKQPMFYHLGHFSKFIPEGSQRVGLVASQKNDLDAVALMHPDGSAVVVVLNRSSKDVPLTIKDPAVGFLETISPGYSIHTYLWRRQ
Assay: Glucocerebrosidase;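 further: the screen sought inhibitors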
Conditions: purified enzyme, resorufin glucoside fluorescence (screen aimed at inhibitors), 20 min; series mostly up to 77 µM
In short: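 Wild-type enzyme at 0.2 nM final in 50mM citric acid/KH2PO4, 10mM sodium taurocholate, 0.01% tween-20, pH 5.9, with resorufin beta-D-glucopyranoside at 30 uM final. Compounds titrated, 20 min at RT, red fluorescence read; AC50 from titration.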
Potency means the concentration at half of the fitted maximal effect.

Potency, inactive:
COC(=O)C1CCN(Cc2cc(=O)oc3cc(OC)ccc23)CC1 > 76.9 µM, COc1ccccc1NS(=O)(=O)c1ccc(NC(C)=O)cc1 > 76.9 µM, CN(C)S(=O)(=O)c1cccc(-c2nnc(SCc3ccc4c(c3)OCCO4)o2)c1 > 76.9 µM, Cc1noc(C)c1S(=O)(=O)N(C)CC(=O)NCc1ccccc1 > 76.9 µM, N#C/C(=C1/CCCCCN1)c1nc2ccccc2[nH]1 > 76.9 µM, O=C(NC(Cc1ccccc1)C(=O)N1CCN(c2ccccn2)CC1)c1ccco1 (centres undefined) > 76.9 µM, N#CCCN1CCN(C2=NC(=O)C(=C3CCCCC3)S2)CC1 > 76.9 µM, Cc1c(NC(=O)CCC(=O)N2CCCCC2)c(=O)n(-c2ccccc2)n1C > 76.9 µM, N#CCCN1CCN(C(=S)c2ccc(-c3cc(Cl)ccc3Cl)o2)CC1 > 76.9 µM, O=C(O)CCSc1nc2ccc(Br)cc2[nH]1 > 76.9 µM, Cn1cccc1C(=O)OCc1csc(-c2ccccc2)n1 > 76.9 µM, Cc1cc(N2CCCC2=O)c(N)cc1N > 76.9 µM, COC(=O)c1ccccc1NC(=O)c1cccs1 > 76.9 µM, CCOC(=O)N1CCN(C(=O)CCCOc2ccccc2)CC1 > 76.9 µM, Cc1cc(C)n2cc(CSc3nnnn3-c3ccccc3C)nc2n1 > 76.9 µM, Cc1ccc(Nc2nnc(SCc3cc(=O)n4ccsc4n3)s2)c(C)c1 > 76.9 µM, CCn1c(N2CCN(CC(=O)c3c[nH]c4ccccc34)CC2)nc2c1c(=O)[nH]c(=O)n2C > 76.9 µM, Cc1cc(=O)[nH]c2c1c(C)nn2-c1ccccc1 > 76.9 µM, COC(=O)CNC(=O)CNC(=O)Nc1ccccc1 ({NHPh-CO}-Gly-Gly-OMe) > 76.9 µM, COc1ccc(-n2cnnc2SCCC#N)cc1 > 76.9 µM, COc1ccc(OC)c(N/C(C)=C/C(=O)c2ccc(C)o2)c1 > 76.9 µM, Cc1nn(C)c(C)c1S(=O)(=O)N1CCCC(C(=O)N2CCN(c3ccc(Cl)cc3)CC2)C1 (centres undefined) > 76.9 µM, CC(C)NS(=O)(=O)c1ccc(OCC(=O)NCc2cccnc2)cc1 > 76.9 µM, c1nc2sc3c(c2c2nnnn12)CCCC3 > 76.9 µM, CCCCCC(=O)N(O)C1CC(=O)N(c2ccccc2)C1=O (centres undefined) > 76.9 µM, O=C(COC(=O)c1ccc[nH]c1=O)c1ccc(Cl)s1 > 76.9 µM, COC(=O)Nc1c(C)n(C)n(-c2ccccc2)c1=O > 76.9 µM, O=C(NCC(=O)N(Cc1ccco1)C(C(=O)NC1CCCCC1)c1cccnc1)c1ccco1 (centres undefined) > 76.9 µM, COc1ccc(OC)c(S(=O)(=O)NCc2ccccc2)c1 > 76.9 µM, CCCC(=O)Nc1cccc(NC(=O)c2ccc3c(c2)OCCO3)c1 > 76.9 µM, Nc1c(N2CCCC2)cc(Cl)c2nonc12 > 76.9 µM, N#CCSc1nnc2c(Cl)cc(Cl)cn12 > 76.9 µM, Cc1csc(=O)n1CC(=O)OCc1cccc2ccccc12 > 76.9 µM, Cn1nnc(C(O)CN2CCOCC2)n1 (centres undefined) > 76.9 µM, CCOC(=O)Cn1c(C)c(C#N)c2ccccc21 > 76.9 µM, CCOc1ccc(-c2noc(=O)[nH]2)cc1 > 76.9 µM, COC(=O)c1ccc(CSc2ccc3nnc(-c4ccc(OC)c(OC)c4)n3n2)o1 > 76.9 µM, Cc1noc2nc(-c3cccs3)cc(-c3nnc4n3CCCCC4)c12 > 76.9 µM, CCN(CC)c1ccc(NC(=O)c2cc3ccccc3o2)c(C)c1 > 76.9 µM, CCCCC(=O)NCCNc1nc2c(c(=O)n(C)c(=O)n2C)n1Cc1ccccc1 > 76.9 µM, CC(=O)N(C(C)=O)c1c(N2CCOCC2)c2ccccc2oc1=O > 76.9 µM, Cc1ccc2c(c1)NCC(C(=O)NC1CCCCC1)O2 (centres undefined) > 76.9 µM, CCN(CC(=O)NC)S(=O)(=O)c1ccc(Br)cc1 > 76.9 µM, CC(=O)N=C1SC2CS(=O)(=O)CC2N1c1ccccc1Cl (centres undefined) > 76.9 µM, Cc1ccc2oc(C(=O)Nc3c(C)n(C)n(-c4ccccc4)c3=O)c(C)c2c1 > 76.9 µM, Cc1cc(C(=O)OCC(=O)N(C)C2CCS(=O)(=O)C2)c(C)n1-c1ccccc1 (centres undefined) > 76.9 µM, CCOc1cc(CN2CCCCC2)ccc1OC > 76.9 µM, CCCCCOc1ccc(NS(C)(=O)=O)cc1 > 76.9 µM, [O-][n+]1onc2c1C(N1CCOCC1)CCC2N1CCOCC1 (centres undefined) > 76.9 µM, C#CCNc1nc(C(C)C)nc2c1nnn2Cc1ccccc1F > 76.9 µM, O=C(CSc1cccc2cccnc12)N1CCCC1 > 76.9 µM, O=C(CSc1nnc(CNc2ccccc2)o1)c1ccc2c(c1)OCCO2 > 76.9 µM, Cc1noc(C)c1CSCC(=O)OCC(=O)Nc1sccc1C#N > 76.9 µM, COc1ccc(C2Nc3ccccc3C(=O)N2O)cc1OC (centres undefined) > 76.9 µM, Cc1ccc2nc(CCc3nc4ccc(C)cc4o3)oc2c1 > 76.9 µM, Cn1c(=O)c2c(nc(Sc3nc4ccccc4n3CC(=O)N3CCCCC3)n2C)n(C)c1=O > 76.9 µM, CCOc1ccc(NS(=O)(=O)N(C)C)cc1 > 76.9 µM, CCOC(=O)Cn1c2c(c(=N)c3ccccc31)CCC2 > 76.9 µM, O=C(O)C1C2CCC(O2)C1C(=O)NCCC1=CCCCC1 (centres undefined) > 76.9 µM, CCn1ncc(Br)c1C(=O)Nc1sc2c(c1C(=O)OC)CCC2 > 76.9 µM, O=C(NCCCN1CCOCC1)c1coc2ccccc2c1=O > 76.9 µM, CC1CCN(CCCNC(=O)C2CC(=O)N(C3CCCCCC3)C2)CC1 (centres undefined) > 76.9 µM, COCCOCCn1c(CCCO)nc2ccccc21 > 76.9 µM, CC1CN(S(=O)(=O)c2ccc(Cl)c(C(F)(F)F)c2)CC(C)O1 (centres undefined) > 76.9 µM, CC(=O)Nc1cc2c(cc1C(C)=O)OCCO2 > 76.9 µM, Cc1ccc(NC(=O)CCCC(=O)O)c(Br)c1 > 76.9 µM, COC(=O)c1ccccc1NC(=O)C1CC(=O)N(c2ccc(F)cc2)C1 (centres undefined) > 76.9 µM, CCOC(=O)Cc1csc(NC(=O)c2cccs2)n1 > 76.9 µM, Cn1c(=O)c2[nH]c(CN(Cc3ccccc3)Cc3ccccc3)nc2n(C)c1=O > 76.9 µM, Cc1cc(N)c(NC2=CC(=O)CC(C)(C)C2)cc1C > 76.9 µM, Cc1cc(C)nc(SCC(=O)N2CCC(C(N)=O)CC2)n1 > 76.9 µM, CC1(C)CC(=O)C2=C(C1)NC(SCC(=O)Nc1ccccc1)=C(C#N)C2c1ccco1 (centres undefined), COc1ccc(NC(=O)c2cccs2)cc1O > 76.9 µM, Cc1cc(-c2ccccc2)nc(N2CCC(C(=O)NC(C)C)CC2)n1 > 76.9 µM, COc1cc(NC(=O)CN2C(=O)NC(C)(CCC(C)C)C2=O)cc(OC)c1 (centres undefined) > 76.9 µM, CCOc1ccc(-n2c(COc3ccc(C)cc3)nnc2SCC(N)=O)cc1 > 76.9 µM, COC(=O)[C@H](Cc1ccccc1)NC(=O)NCc1ccc(S(N)(=O)=O)cc1 > 76.9 µM, COc1ccc(OC)c(NC(=O)CN(c2ccc(C)cc2)S(=O)(=O)c2c(C)noc2C)c1 > 76.9 µM, c1ccc(-c2nn3c(-c4ccco4)nnc3s2)nc1 > 76.9 µM, CCCc1cc(C(=O)OC)c(NC(=O)OCC)s1 > 76.9 µM, O=C(Cc1cccs1)N(c1ccccc1)C1C=CS(=O)(=O)C1 (centres undefined) > 76.9 µM, CC(=O)N(c1ccc(N(C(C)=O)S(=O)(=O)c2cccs2)cc1)S(=O)(=O)c1cccs1 > 76.9 µM, COCCn1nnnc1C(C(C)C)N1CCN(C(=O)c2ccco2)CC1 (centres undefined) > 76.9 µM, CCC12CC3CC(C1)CC(C(=O)Nc1nn[nH]n1)(C3)C2 > 76.9 µM, C=CCn1c(Cc2nc3ccccc3[nH]2)n[nH]c1=S > 76.9 µM, CCCn1c(C)nc2c(c1=O)c1nc3ccccc3nc1n2CCC1=CCCCC1 > 76.9 µM, CCOC(=O)C1C2C=CC3(CN(c4ccccc4CC)C(=O)C13)O2 (centres undefined) > 76.9 µM, CCOC(=O)CC(=O)CSc1nnc(Cn2c(=O)sc3ccccc32)n1C > 76.9 µM, COc1ccc(-n2cnnc2SC(C)c2nc3sc(C)c(C)c3c(=O)[nH]2)cc1 (centres undefined) > 76.9 µM, Oc1ccccc1C1=Nc2ncnn2C(c2ccc(F)cc2)C1 (centres undefined) > 76.9 µM, O=C(COc1ccc(Cl)cc1)NCc1nnc(SCC(=O)NC2CCCCC2)o1 > 76.9 µM, CC(C)OC(=O)c1ccc(N2C(=O)C3CC=CCC3C2=O)cc1 (centres undefined) > 76.9 µM, CCC(c1nnnn1C(C)(C)CC)N(CCCO)Cc1cc2cccc(C)c2[nH]c1=O (centres undefined) > 76.9 µM, Cc1cc(C)nc(/N=C/c2c(O)n(C)c(=O)n(C)c2=O)n1 > 76.9 µM
